This is one part of the list. Sequences were assembled here from the parent chain. Inactive controls read about 0.05.
B1: TEV protease; numbered along this chain (parent)
chain: MGESLFKGPRDYNPISSSICHLTNESDGHTTSLYGIGFGPFIITNKHLFRRNNGTLVVQSLHGVFKVKDTTTLQQHLVDGRDMIIIRMPKDFPPFPQKLKFREPQREERICLVTTNFQTKSMSSMVSDTSCTFPSGDGIFWKHWIQTKDGQCGSPLVSTRDGFIVGIHSASNFTNTNNYFTSVPKNFMELLTNQEAQQWVSGWRLNADSVLWGGHKVFMVKPEEPFQPVKEATQL

Variants of: B1
Test: raw area under fraction-flipped curve 0-4 h after induction (AUC4h, not background-subtracted), DNA-recorder readout of cleavage of the substrate (dimensionless); higher = more cleavage of the substrate by the protease variant
Conditions: temperature: 34 °C; time window: 0-4 h after rhamnose induction
Method: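 In vivo DNA recorder in E. coli TOP10(DE3) ΔrhaA at 34 °C. Each TEVp single-site mutant (parent TEVp 0) is paired with a single-site variant of the 7-mer TEVs (canonical ENLYFQ|S). The substrate sits between flexible linkers in a Bxb1-sfGFP-TEVs-SsrA fusion, so cleavage stabilises Bxb1 and speeds flipping of a recombination array, read by NGS. The value is the raw area under the fraction-flipped curve over 0-4 h after rhamnose induction (AUC4h), with ≥20 reads per time point. It is not background-subtracted; inactive controls average about 0.047.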
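Note: Bxb1 expression induced with 0.2% (w/v) L-rhamnose at OD600 near 0.5, cultures sampled hourly, flipped fraction per protease–substrate barcode pair counted by paired-end Illumina sequencing.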

Row | Variant | area with substrate ENLYAQS | area with substrate ENLYDQS | area with substrate ENLYEQS | area with substrate ENLYGQS | area with substrate ENLYHQS | area with substrate ENLYIQS | area with substrate ENLYKQS | area with substrate ENLYMQS | area with substrate ENLYNQS | area with substrate ENLYPQS | area with substrate ENLYSQS | area with substrate ENLYTQS | area with substrate ENLYVQS | area with substrate ENLYWQS | area with substrate ENLYYQS | area with substrate ENLYCQS | area with substrate ENLYQQS | area with substrate ENLYRQS | area with substrate ENLYLQS
1 | S4C | 0.0768 | 0.0649 | 0.0817 | 0.0601 | 0.0672 | 0.0875 | 0.0721 | 0.0657 | 0.0677 | 0.0701 | 0.0697 | 0.0784 | 0.0846 | 0.067 | 0.0623 | – | – | – | –
2 | E231C | 0.0733 | – | 0.0739 | 0.0702 | 0.0762 | 0.13 | 0.0616 | 0.0706 | 0.0708 | – | – | – | 0.0609 | 0.0677 | 0.0692 | 0.0748 | 0.061 | 0.063 | –
3 | S154W | 0.0677 | 0.0527 | 0.0696 | 0.0608 | – | – | 0.0627 | 0.0552 | 0.0688 | 0.0672 | – | 0.083 | 0.0456 | 0.0605 | 0.0981 | 0.07 | – | 0.0662 | 0.0677
4 | S60K | 0.0641 | 0.0376 | 0.0522 | 0.0687 | 0.0529 | – | 0.0146 | 0.0668 | – | 0.0601 | 0.0684 | – | 0.102 | – | – | – | 0.057 | – | –
5 | V220W | 0.0692 | 0.0537 | 0.0751 | 0.0621 | 0.0642 | 0.123 | 0.0641 | 0.0674 | 0.0571 | 0.0619 | 0.0695 | 0.0668 | 0.096 | – | 0.0444 | – | – | 0.0618 | –
6 | E25Y | 0.0363 | 0.0606 | 0.08 | 0.0794 | 0.0588 | 0.118 | 0.0649 | 0.0842 | 0.0789 | 0.0646 | 0.0716 | – | 0.143 | 0.0779 | – | 0.0616 | 0.0644 | 0.0631 | –
7 | G54Q | 0.0472 | 0.0796 | 0.0599 | 0.0676 | 0.0644 | 0.0748 | 0.0509 | 0.056 | 0.0627 | 0.0529 | 0.0875 | 0.0587 | 0.076 | 0.0674 | 0.0543 | 0.0578 | 0.055 | 0.0595 | –
8 | F49A | 0.0786 | 0.0491 | 0.0574 | 0.065 | 0.0579 | – | 0.0606 | 0.0696 | – | 0.0543 | 0.0494 | 0.0548 | 0.0522 | 0.0528 | 0.0608 | – | – | 0.0548 | –
9 | V157L | 0.0713 | 0.0463 | 0.0701 | 0.0649 | 0.0571 | 0.114 | 0.0452 | – | 0.0627 | 0.0962 | 0.064 | – | 0.116 | 0.0881 | 0.0583 | 0.0914 | – | 0.0529 | 0.0728
10 | V157S | 0.0644 | 0.0586 | – | 0.0553 | 0.0627 | 0.0818 | 0.0606 | 0.0716 | 0.0689 | 0.0659 | – | – | 0.0803 | 0.063 | 0.0479 | – | 0.0763 | 0.0539 | –
11 | G28D | 0.0791 | 0.0642 | 0.0427 | 0.063 | 0.0672 | – | 0.0687 | 0.0779 | 0.0831 | 0.0677 | 0.112 | 0.076 | 0.0895 | 0.117 | 0.0401 | – | 0.0612 | 0.0855 | 0.0858
12 | F38Y | 0.0718 | 0.0669 | 0.0731 | 0.0623 | 0.0766 | 0.0681 | 0.0529 | 0.112 | 0.0717 | 0.0788 | 0.0708 | 0.0834 | 0.185 | 0.0845 | 0.0653 | 0.0735 | – | – | 0.101

From the supplement of paper PMC12217912
